Measurements published in paper PMC9726891.
These are yes or no findings as the source states them, for the method shown. In cells and extracts the contact can be indirect. Some entries that bind do so weakly or less than the wild type. For part of these data: Tags and fused reporters may be left off the sequences shown. Values belong to the binder of their own block, whether it stands above or below them.

Protein sequences, listed by entry. Tags and fused reporters are not part of them.
UniProt P10659: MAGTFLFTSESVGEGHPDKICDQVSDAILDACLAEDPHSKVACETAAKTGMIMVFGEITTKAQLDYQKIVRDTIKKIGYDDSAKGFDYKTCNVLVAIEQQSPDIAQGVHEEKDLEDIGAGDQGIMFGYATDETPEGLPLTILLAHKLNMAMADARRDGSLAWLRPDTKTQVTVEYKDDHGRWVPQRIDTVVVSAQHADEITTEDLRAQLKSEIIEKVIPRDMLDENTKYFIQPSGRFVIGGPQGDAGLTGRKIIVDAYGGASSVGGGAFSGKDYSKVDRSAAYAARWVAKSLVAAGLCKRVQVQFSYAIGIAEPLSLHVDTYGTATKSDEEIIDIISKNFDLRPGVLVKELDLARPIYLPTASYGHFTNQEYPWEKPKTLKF

What was measured:
[1] = target: T1, tandem affinity purification (TAP)-tagged Reb1 (Reb1-TAP) (S. cerevisiae (endogenous in yeast)) (UniProt P21538); test: co-IP; Reb1-TAP immunoprecipitated with calmodulin beads from MNase-digested whole cell extract; 10 mM Tris pH 8.0, 150-350 mM NaCl, 2 mM CaCl2, 0.1% NP-40, 4 h at 4 °C
T1 sequence: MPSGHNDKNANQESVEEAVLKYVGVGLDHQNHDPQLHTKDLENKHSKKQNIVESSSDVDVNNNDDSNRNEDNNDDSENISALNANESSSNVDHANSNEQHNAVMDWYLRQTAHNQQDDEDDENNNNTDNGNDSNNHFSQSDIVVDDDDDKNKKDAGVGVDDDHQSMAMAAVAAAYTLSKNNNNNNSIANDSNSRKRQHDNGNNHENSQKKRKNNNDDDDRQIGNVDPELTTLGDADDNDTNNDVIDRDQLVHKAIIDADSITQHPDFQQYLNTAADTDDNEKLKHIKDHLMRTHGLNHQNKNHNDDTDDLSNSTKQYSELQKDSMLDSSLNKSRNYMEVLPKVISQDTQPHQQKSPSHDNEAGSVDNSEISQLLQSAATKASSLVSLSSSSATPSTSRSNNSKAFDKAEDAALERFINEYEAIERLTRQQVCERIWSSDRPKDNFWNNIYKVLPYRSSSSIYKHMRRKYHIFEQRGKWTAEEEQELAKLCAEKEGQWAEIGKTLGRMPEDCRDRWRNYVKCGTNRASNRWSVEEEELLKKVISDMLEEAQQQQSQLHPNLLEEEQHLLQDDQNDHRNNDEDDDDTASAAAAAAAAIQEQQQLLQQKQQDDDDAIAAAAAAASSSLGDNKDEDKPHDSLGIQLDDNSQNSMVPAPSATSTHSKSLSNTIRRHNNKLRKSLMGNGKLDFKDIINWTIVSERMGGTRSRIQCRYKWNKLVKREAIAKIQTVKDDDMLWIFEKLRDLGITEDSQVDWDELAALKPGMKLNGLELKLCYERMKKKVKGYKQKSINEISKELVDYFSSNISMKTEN

[2] = target: T2, pyruvate kinase Pyk1 (S. cerevisiae (endogenous in yeast)) (UniProt P00549); test: co-IP; endogenous Pyk1 immunoprecipitated with anti-Pyk1 antibody from yeast cell extract
T2 sequence: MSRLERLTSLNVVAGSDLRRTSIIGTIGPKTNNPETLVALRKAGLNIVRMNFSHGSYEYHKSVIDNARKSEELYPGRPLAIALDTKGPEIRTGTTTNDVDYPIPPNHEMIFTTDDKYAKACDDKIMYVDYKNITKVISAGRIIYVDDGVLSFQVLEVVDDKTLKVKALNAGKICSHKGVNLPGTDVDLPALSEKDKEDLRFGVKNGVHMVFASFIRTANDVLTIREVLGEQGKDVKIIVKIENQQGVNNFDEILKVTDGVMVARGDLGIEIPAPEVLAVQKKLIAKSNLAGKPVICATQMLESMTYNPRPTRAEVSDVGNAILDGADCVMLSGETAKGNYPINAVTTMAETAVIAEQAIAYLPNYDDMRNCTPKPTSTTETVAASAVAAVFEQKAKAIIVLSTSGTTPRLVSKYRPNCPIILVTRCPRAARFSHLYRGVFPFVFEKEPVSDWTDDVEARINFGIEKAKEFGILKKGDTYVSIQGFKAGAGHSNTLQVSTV

H3pT11 (1–23) peptide = test: pull-down; 1.0 µg biotinylated histone peptide incubated with 0.5 ml yeast whole cell extract in 50 mM Tris-HCl pH 7.5, 250 mM NaCl, 0.1% NP-40, overnight at 4 °C; Streptavidin beads; immunoblot; only the target purified
[3] = target: Unmodified H3 (1–23) peptide; test: as above
[4] = target: T2, pyruvate kinase Pyk1 (S. cerevisiae (endogenous in yeast)); test: co-IP; Reb1 and Pyk1 in cells grown in YPD or in glucose starvation medium SD-C (Supplementary Fig. 12b); bait not given
[5] = target: Sam1 (S. cerevisiae (endogenous in yeast)) (UniProt P10659); test: co-IP; endogenous Sam1 immunoprecipitated with anti-Sam1 antibody from yeast cell extract

- binding [1]: binds
- binding [2]: binds
B1: Acs2 (enzyme, UniProt P52910 1-683)
chain: MTIKEHKVVYEAHNVKALKAPQHFYNSQPGKGYVTDMQHYQEMYQQSINEPEKFFDKMAKEYLHWDAPYTKVQSGSLNNGDVAWFLNGKLNASYNCVDRHAFANPDKPALIYEADDESDNKIITFGELLRKVSQIAGVLKSWGVKKGDTVAIYLPMIPEAVIAMLAVARIGAIHSVVFAGFSAGSLKDRVVDANSKVVITCDEGKRGGKTINTKKIVDEGLNGVDLVSRILVFQRTGTEGIPMKAGRDYWWHEEAAKQRTYLPPVSCDAEDPLFLLYTSGSTGSPKGVVHTTGGYLLGAALTTRYVFDIHPEDVLFTAGDVGWITGHTYALYGPLTLGTASIIFESTPAYPDYGRYWRIIQRHKATHFYVAPTALRLIKRVGEAEIAKYDTSSLRVLGSVGEPISPDLWEWYHEKVGNKNCVICDTMWQTESGSHLIAPLAGAVPTKPGSATVPFFGINACIIDPVTGVELEGNDVEGVLAVKSPWPSMARSVWNHHDRYMDTYLKPYPGHYFTGDGAGRDHDGYYWIRGRVDDVVNVSGHRLSTSEIEASISNHENVSEAAVVGIPDELTGQTVVAYVSLKDGYLQNNATEGDAEHITPDNLRRELILQVRGEIGPFASPKTIILVRDLPRTRSGKIMRRVLRKVASNEAEQLGDLTTLANPEVVPAIISAVENQFFSQKKK

- binding (H3pT11 (1–23) peptide): binds
- binding [3]: binds
B2: Set2 (in yeast whole cell extract) (enzyme, UniProt P46995 1-733)
chain: MSKNQSVSASEDEKEILNNNAEGHKPQRLFDQEPDLTEEALTKFENLDDCIYANKRIGTFKNNDFMECDCYEEFSDGVNHACDEDSDCINRLTLIECVNDLCSSCGNDCQNQRFQKKQYAPIAIFKTKHKGYGVRAEQDIEANQFIYEYKGEVIEEMEFRDRLIDYDQRHFKHFYFMMLQNGEFIDATIKGSLARFCNHSCSPNAYVNKWVVKDKLRMGIFAQRKILKGEEITFDYNVDRYGAQAQKCYCEEPNCIGFLGGKTQTDAASLLPQNIADALGVTVSMEKKWLKLKKLSGEPIIKNENENINIEFLQSLEVQPIDSPVDVTKIMSVLLQQDNKIIASKLLKRLFTIDDDSLRHQAIKLHGYTCFSKMLKLFITEQPQVDGKGNETEEDDIKFIKGILDFLLELPKTTRNGIESSQIDNVVKTLPAKFPFLKPNCDELLEKWSKFETYKRITKKDINVAASKMIDLRRVRLPPGWEIIHENGRPLYYNAEQKTKLHYPPSGSSKVFSSRSNTQVNSPSSSGIPKTPGALDSKKHKLSDEEYERKKQKRLEYERIALERAKQEELESLKQKLKLENERKSVLEDIIAEANKQKELQKEEAKKLVEAKEAKRLKRKTVSQSQRLEHNWNKFFASFVPNLIKKNPQSKQFDHENIKQCAKDIVKILTTKELKKDSSRAPPDDLTKGKRHKVKEFINSYMDKIILKKKQKKALALSSASTRMSSPPPSTSS

- binding [4]: binds
- binding [5]: binds
- binding [2]: binds
B3: Reb1 (endogenously expressed, tag not stated) (protein, UniProt P21538 1-810)
chain: T1 sequence

- binding (H3pT11 (1–23) peptide): binds
- binding [3]: binds
B4: Set1 (in yeast whole cell extract) (enzyme, UniProt P38827 1-1080)
chain: MSNYYRRAHASSGSYRQPQEQPQYSRSGHYQYSNGHSHQQYSSQYNQRRRYNHNDGTRRRYNDDRPHSSNNASTRQYYATNNSQSGPYVNKKSDISSRRGMSQSRYSNSNVHNTLASSSGSLPTESALLLQQRPPSVLRYNTDNLKSKFHYFDPIKGEFFNKDKMLSWKATDKEFSETGYYVVKELQDGQFKFKIKHRHPEIKASDPRNENGIMTSGKVATHRKCRNSLILLPRISYDRYSLGPPPSCEIVVYPAQDSTTTNIQDISIKNYFKKYGEISHFEAFNDPNSALPLHVYLIKYASSDGKINDAAKAAFSAVRKHESSGCFIMGFKFEVILNKHSILNNIISKFVEINVKKLQKLQENLKKAKEKEAENEKAKELQGKDITLPKEPKVDTLSHSSGSEKRIPYDLLGVVNNRPVLHVSKIFVAKHRFCVEDFKYKLRGYRCAKFIDHPTGIYIIFNDIAHAQTCSNAESGNLTIMSRSRRIPILIKFHLILPRFQNRTRFNKSSSSSNSTNVPIKYESKEEFIEATAKQILKDLEKTLHVDIKKRLIGPTVFDALDHANFPELLAKRELKEKEKRQQIASKIAEDELKRKEEAKRDFDLFGLYGGYAKSNKRNLKRHNSLALDHTSLKRKKLSNGIKPMAHLLNEETDSKETTPLNDEGITRVSKEHDEEDENMTSSSSEEEEEEAPDKKFKSESEPTTPESDHLHGIKPLVPDQNGSSDVLDASSMYKPTATEIPEPVYPPEEYDLKYSQTLSSMDLQNAIKDEEDMLILKQLLSTYTPTVTPETSAALEYKIWQSRRKVLEEEKASDWQIELNGTLFDSELQPGSSFKAEGFRKIADKLKINYLPHRRRVHQPLNTVNIHNERNEYTPELCQREESSNKEPSDSVPQEVSSSRDNRASNRRFQQDIEAQKAAIGTESELLSLNQLNKRKKPVMFARSAIHNWGLYALDSIAAKEMIIEYVGERIRQPVAEMREKRYLKNGIGSSYLFRVDENTVIDATKKGGIARFINHCCDPNCTAKIIKVGGRRRIVIYALRDIAASEELTYDYKFEREKDDEERLPCLCGAPNCKGFLN

- binding [1]: binds
B5: pyruvate kinase Pyk1 (enzyme, UniProt P00549 1-500)
chain: T2 sequence

- binding [1]: binds
- binding [2]: binds
B6: Shm2 (enzyme, UniProt P37291 1-469)
chain: MPYTLSDAHHKLITSHLVDTDPEVDSIIKDEIERQKHSIDLIASENFTSTSVFDALGTPLSNKYSEGYPGARYYGGNEHIDRMEILCQQRALKAFHVTPDKWGVNVQTLSGSPANLQVYQAIMKPHERLMGLYLPDGGHLSHGYATENRKISAVSTYFESFPYRVNPETGIIDYDTLEKNAILYRPKVLVAGTSAYCRLIDYKRMREIADKCGAYLMVDMAHISGLIAAGVIPSPFEYADIVTTTTHKSLRGPRGAMIFFRRGVRSINPKTGKEVLYDLENPINFSVFPGHQGGPHNHTIAALATALKQAATPEFKEYQTQVLKNAKALESEFKNLGYRLVSNGTDSHMVLVSLREKGVDGARVEYICEKINIALNKNSIPGDKSALVPGGVRIGAPAMTTRGMGEEDFHRIVQYINKAVEFAQQVQQSLPKDACRLKDFKAKVDEGSDVLNTWKKEIYDWAGEYPLAV
